167 variants from the RNAGym collection of RNA variant scans (doi:10.1093/nar/gkz1192) can be followed below.

B1: CPEB3 Ribozyme (parent)
chain: UAACAGGGGGCCACAGCAGAAGCGUUCACGUCGCAGCCCCUGUCAGAUUCUGGUGAAUCUGCGAAUUCUGCUGUAUAUCUC

Read counts are not given, so values of variants with three or more changes are uncertain.

The variants in this data set derive from B1. Briefly: self-cleavage, relative activity (ratio to wild type); higher = more cleavage; in vitro, sequencing. The gist of the method: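 CPEB3 self-cleaving ribozyme mutant libraries were made by rounds of error-prone PCR, barcoded, and transcribed in vitro with T7 RNA polymerase for 5 hours at 37°C. Cleavage occurred during transcription and a 15 min DNase I step before EDTA stop. RNAs were reverse transcribed with template switching and Illumina-sequenced, with DNA sequencing mapping barcodes to variants. Relative activity is the variant's cleaved/total read fraction divided by wild type's (minimum 5 reads), averaged across three batches.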
As for U41C A45G U72C U80C, the self-cleavage turned out to be 1. Regarding U41A G42U U51A A77G, the self-cleavage amounted to 0.21. Consider U41A A56C A57U U66A, for which the self-cleavage came out at 0.08. The value for U41C A45U U78C was 0.61. Take U41C A45U A47G C62U: the self-cleavage came to 0.15. With U41C A45U A57C U78C, the self-cleavage came out at 0.05. Consider U41C A45U U54A U67C, for which the self-cleavage turned out to be 0.45. To U41C A47G A57G A77G belongs 0.7; to U41A U60C A64G, 0.32. Consider U41A C50A U72A, for which the self-cleavage came out at 0.1. For the variant U41C G61U A64U U72C, the self-cleavage was found to be 0.23. The value for U41A U49G C79U was 0.19; that for U41A A56G U60C was 0.06.

For the variant U41C A47U U54G, the self-cleavage worked out at 0.31. On to U41C A45C U49A U80C, for which the self-cleavage stood at 0.51. The value for U41C A57G U58C U67A U69C was 0.15; that for U41C C44U G55U A57G U60C was 0.07; that for U41A U51A U54C U72C was 0.14.

Turning to U41A A57G U60C U69G, the self-cleavage came out at 0.25. With U41A U51A U69C, the self-cleavage was 0.25. Consider U41C A45G U54G U58A U69A U76A, for which the self-cleavage was determined as 0.19. To U41A U69A A77U belongs 0.16; to C40U U67A U69G U80A, 0.08; to U41C A57G U80A, 1.15. With U41C G46A U72A, the self-cleavage was 0.2. To U41A U72C U80C belongs 0.39; to U41A U72C U80A, 0.12; to U41C G70U U80C, 0.28. To U41A U48C G55A U66C belongs 0.11. Take U41A A45G U54C U74A: the self-cleavage was found to be 0.23. The value for U41C A45C A56U A57G U72G was 0.07; that for U41A U60A U72C was 0.07; that for U41A A45U U51A A77G was 0.1.

For U41C G46A U49A A57G, the self-cleavage was found to be 0.1.

On to U41C C50A A77G, for which the self-cleavage came to 0.94. On to U41A A64G C79A, for which the self-cleavage was found to be 0.15.

Consider U41C G46U U49C U54C A57G G73U, for which the self-cleavage was determined as 0.07.

Take U41A A57G A77U: the self-cleavage amounted to 0.16. As for U41A C59G U60A G63U, the self-cleavage came to 0.06. The value for U41C A64G A75U was 0.9. The value for C40U U49A U76C was 0.39; that for C40U U51G A57U was 0.52. For the variant U41A U60G A64U, the self-cleavage came out at 0.39.

Consider U41A U49C C81A, for which the self-cleavage was 0.19. To U41A A45G A47G belongs 0.63.

Consider U41A U51C U54C U74C, for which the self-cleavage turned out to be 0.36.

In the case of U41A U67G U72A, the self-cleavage amounted to 0.08.

On to U41A U60C C62U, for which the self-cleavage came out at 0.14. The value for U41C U43A A56U U66C was 0.14.

Take U41C A47U U69C: the self-cleavage amounted to 0.11.

For the variant U41C G42C U60C A75U U76C, the self-cleavage was 0.14. With U41A A77U U78A, the self-cleavage worked out at 0.21. On to C40U U51A G61C A64G, for which the self-cleavage stood at 0.17. For U41A U67G A77U, the self-cleavage was 0.17. The value for U41A U67A U74C was 0.28.

On to U41C U43C C50A U60C, for which the self-cleavage stood at 0.04. As for U41A U72C U78C, the self-cleavage was 0.24. To U41A U72C U78A belongs 0.44; to U41A U51A A57G U66C U80C, 0.08; to U41C A45G U60C U72A, 0.41. As for U41A A45G A57U U76C, the self-cleavage came to 0.12. To U41A U60C U66C belongs 0.44. To U41A A45G U49A U54C U74C A75U belongs 0.22; to U41A U69C U72A U80C, 0.16.

As for U41A U43C U66A U67C, the self-cleavage stood at 0.13. Consider U41A A45U U48C A56U, for which the self-cleavage was 0.14. The value for U41A G63U U80C was 0.49. The value for U41C U43C A56G U69A U80C was 0.05; that for U41C A56U C81U was 0.88; that for U41A U48C U51A U74G U78A was 0.08. Consider U41A C50U G53A U58C A64U G70C U80A, for which the self-cleavage turned out to be 0.09.

With U41A U49G U72C, the self-cleavage was found to be 0.06. The value for U41C A47G U48C U78A was 0.2; that for U41A U74C U76A was 0.13; that for U41C U43C U48A U72C A77G U80A was 0.09. The value for U41A A45G A65G A75G was 0.1; that for U41C A47G U58C was 1.25. The value for U41C A56U U69G A77U U80A was 0.38; that for U41A G53A G70U was 0.14; that for U41A U48A A64U U72A was 0.06. In the case of U41A U58C U74C, the self-cleavage came to 0.36. To U41C A47G A75G U76C belongs 0.84; to U41C G63A A64U, 0.3. With U41C A57G A64C U69C, the self-cleavage is 0.34. To U41C C62G A64G U80C belongs 0.48; to U41C G42C G63U A77U, 0.42; to U41A U43G A47G U66C, 0.26. In the case of U41A A56G U69C U78A, the self-cleavage was found to be 0.06. As for U41C A45U U67C, the self-cleavage came to 0.35. For U41A A64G A65G, the self-cleavage came to 0.16. The value for U41C C50U U60C A65G U80C was 0.23; that for U41A U69C G73A was 0.26; that for C40U U54C A56G A64U U74G U80C was 0.13. Regarding U41A U49A A64G U72A U78A, the self-cleavage came out at 0.14. Consider U41A A64C A77U, for which the self-cleavage amounted to 0.15. The value for U41C G73U U76A was 1.22; that for U41A A65G U72C was 0.16; that for U41C A56G C59U U66C U72C was 0.33. On to U41A U51C A56G A57G U58C A64G G73U, for which the self-cleavage turned out to be 0.04. In the case of U41C C44A U72A, the self-cleavage is 0.12. For U41C C50A U66C, the self-cleavage was determined as 0.36. On to U41A G42A A57G, for which the self-cleavage was 0.22.

Take U41A A47G U74G U78A: the self-cleavage was 0.1. To U41A U58C A77G belongs 0.26; to U41A A45G U60C U72C A75U, 0.36.

With U41C A57U U78A, the self-cleavage amounted to 0.86. In the case of U41C A47U U48C U66C, the self-cleavage turned out to be 0.19. The value for U41A U58C U72C was 0.21.

With U41C A56G C59U A64U G70A G73C, the self-cleavage worked out at 0.24. Take U41A A57G U76A: the self-cleavage came out at 0.14. With U41C A45U U49C, the self-cleavage came out at 0.38. As for U41A A45G U72G, the self-cleavage turned out to be 0.12. In the case of U41C A45G A65G, the self-cleavage is 0.36. The value for U41A U74C U80C was 0.61; that for U41C A56U C62U was 0.11; that for U41C A47G G52C was 0.69. To U41C A47G G52A belongs 0.9; to U41A A56U A57G G61A U76C U80C, 0.07. U41A U43C A45G: the self-cleavage was determined as 0.18.

On to U41C A45U A57G U67C, for which the self-cleavage was 0.45.

U41C A57G U72C A75U U78A: the self-cleavage was found to be 0.93.

For the variant U41A A47G U54A, the self-cleavage worked out at 0.25.

As for U41A U51C A57G A64G, the self-cleavage was found to be 0.12. Turning to U41C A45G U72A, the self-cleavage worked out at 0.55. To U41C A45G U72G belongs 1.13.

Regarding U41C U43A U76C, the self-cleavage came out at 0.93. Take U41C G46A U54A U72A: the self-cleavage turned out to be 0.19. The value for U41C A45U U51C U60C C71A was 0.18; that for C40U U58C U66A was 0.14. The value for U41C C62G U69A was 0.19; that for U41A C44G U48C C50G U54A U58C U60A was 0.13.

Turning to U41C G42A U54A, the self-cleavage was determined as 0.42. The value for U41A C50U A75G was 0.13; that for U41A U43A U48C was 0.36.

With U41C C59A U74A, the self-cleavage stood at 0.57. U41A A64U U74C: the self-cleavage is 0.41. To U41A U49G G53C U60C U69C belongs 0.07; to U41C A56U U74A, 1.03; to U41A G52U U72C, 0.31. To C40U U69A U74C belongs 0.4; to U41C A56G U67C U72C A75G, 0.43. The value for U41C A64G U76C was 1.01; that for U41C U43C A56U A57G U72A was 0.15. For U41C U43A U69A, the self-cleavage is 0.34. The value for U41A A57G U72A was 0.17; that for U41A A57U U58G U69C U80C was 0.1; that for U41A A65G U69A was 0.09. U41C A64U U67C U80A C81U: the self-cleavage came out at 0.22. To U41C A45G U48A belongs 0.17.

Take U41C A64U U69G A77G: the self-cleavage worked out at 0.31. In the case of U41A U69C U80C, the self-cleavage turned out to be 0.08. For the variant U41C A47G U54C, the self-cleavage is 0.97. In the case of U41A G70U U76A, the self-cleavage worked out at 0.08. With U41C A65G U69C, the self-cleavage came out at 0.5. To C40U U51C A65U U78A belongs 0.23; to U41A A45G A65G, 0.4. On to C40U U54C A56G, for which the self-cleavage was found to be 0.38. Turning to U41A A57G U60C U69A U80C, the self-cleavage amounted to 0.35.

As to U41C A45U A65C A75G, the self-cleavage came out at 0.25. To U41A U51A A57C belongs 0.18. As for U41A G55A U58C, the self-cleavage was determined as 0.05. The value for U41C A47C A75U was 0.8. To U41C G46A U51G belongs 0.16; to U41A U48C U58A U60G, 0.15. U41A C62U U74C: the self-cleavage amounted to 0.13. The value for U41C A45U U80G was 0.96.

For the variant U41A A47G U54C U74A C79A U80C, the self-cleavage is 0.24.
